Experimental data reported in PubChem BioAssay AID651820 (National Center for Advancing Translational Sciences (NCATS), 2012).
Values joined by “and” are separate entries in the source; they are usually repeats but may differ in a detail not shown here. Identical values can stand only once. Screen size: about 340,000 compounds; about 12,000 (3.5%) were called active. Inconclusive means that the source gave no clear call. Such entries were picked first, then a sample of the others. Calls come from the whole dose curve; as a rule, active = well fitted inhibition curve with a large enough effect; inconclusive = small, poorly fitted or top-dose-only effect, or another doubt; inactive = no such curve, though single readings can be large or run the other way. Potencies beside an inconclusive call are fits to weak or partial responses and may not hold up.

assay: qHTS Assay for Inhibitors of Hepatitis C Virus (HCV); details: Huh7.5.1 HCVcc-Cre (HCVcc is cell-culture hepatitis C virus) infection, luciferase reporter, 44 h; series mostly up to 41.8 µM
How it was run: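 Luciferase read-out (15 sec integration) after a 15 min room-temperature substrate step quantifies HCVcc-Cre infection. Cells, 1,000 per well, had compound added 4 h post-plating, then virus at ~0.5 moi, and were cultured 44 h.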
Potency is the fitted concentration of half-maximal effect; tags give direction and shape of the fitted curve.

Compound	Potency
CCOC(=O)c1cccc(C2=CC(=O)C[C@H](c3ccc(Cl)cc3)C2)c1	inconclusive: 7.08 µM [inhibitor, partial curve]
COc1ccc(NC(=O)Cn2cc(C(=O)c3ccco3)c3ccccc32)cc1	active: 3.55 µM
O=C(Nc1ccc(CN2CCCCC2)cc1)Nc1ccc(Br)cc1Cl	active: 15.8 µM
O=S1(=O)C=C(SCCN2CCCCC2)c2ccccc21	inactive
Cc1cccc(C(=O)N2CCCC(c3nc(-c4ccc(F)cc4)no3)C2)c1 (stereo unspecified)	active: 12.6 µM
Cc1ccc(/C=C/C(O)=C2/C(=O)N(C)C3(C)CC2c2ccccc2O3)cc1 (stereo unspecified)	inconclusive: 31.6 µM [inhibitor, single point]
Cc1oc(-c2cccs2)nc1CS(=O)CC(=O)NCCCOC(C)C (stereo unspecified)	inconclusive: 22.4 µM [inhibitor, single point]
CCCn1c(=O)c2c(C(=O)OCC)cc(-c3ccco3)nc2n(CCC)c1=O	inconclusive: 8.91 µM [inhibitor, partial curve]
CNc1nc(-c2ccccc2)cc(-c2ccccc2)n1	inconclusive: 31.6 µM [inhibitor, single point]
O=S(=O)(Cc1ccccc1)Nn1cnnc1	inconclusive: 0.501 µM [inhibitor, full curve, poor fit]
CC(C)=CCNc1ncnc2c1c(C#N)cn2C1OC(CO)C(O)C1O (stereo unspecified)	inconclusive: 3.16 µM [inhibitor, partial curve]
NC(N)=N/N=C/c1cn(-c2ccccc2)nc1-c1cccs1	inconclusive: 25.1 µM [inhibitor, single point]
COc1ccccc1Nc1nc(N)nc(CSC(=S)N2CCCCC2)n1	inconclusive: 10 µM [inhibitor, partial curve]
CCCn1nc(NC(=O)c2ccco2)c2cc3cc(C)ccc3nc21	active: 12.6 µM
Cn1cc(Cl)c(C(=O)Nc2nc3ccc(Cl)cc3s2)n1	inactive
CSCc1nnc(NC(=O)c2ccc(S(=O)(=O)N3CCCCC3C)cc2)o1 (stereo unspecified)	inconclusive: 22.4 µM [inhibitor, single point]
CCOC(=O)CCCNC(=O)CN1C(=O)NC(c2ccccc2)(c2ccccc2)C1=O	inactive
O=C(OC(C(=O)Nc1ccc(Cl)cc1C(F)(F)F)c1ccccc1)c1c(Cl)cccc1Cl (stereo unspecified)	inactive
COc1cc(C)c(S(=O)(=O)NOCc2ccccc2)c(C)c1C	inconclusive: 22.4 µM [inhibitor, single point]
CCCN(CC(=O)Nc1ccc(Cl)cc1Cl)C(=O)/C=C/c1cc(OC)ccc1OC	inconclusive: 2.51 µM [inhibitor, full curve]
COc1cc2c(cc1OC)CN(CC(=O)Nc1ccccc1C#N)CC2	inconclusive: 31.6 µM [inhibitor, single point]
CCCN1CCC(N2CCN(c3cccc(C(F)(F)F)c3)CC2)CC1	active: 11.2 µM
Cc1[nH]n(-c2ccccc2)c(=O)c1/C=N/N1C(=O)c2ccc3c4c(ccc(c24)C1=O)CC3	inconclusive: 31.6 µM [inhibitor, single point]
CC(=O)Nc1ccc2c(c1)[nH]c(=O)c1ccccc12	inconclusive: 31.6 µM [inhibitor, single point]

Compound	Potency
COc1cccc(C(=O)NC(=S)Nc2ccc3oc(=O)ccc3c2)c1	inactive
COc1cc(/C=C2\SC(=S)N(NC(=O)c3ccc(O)c(OC)c3)C2=O)ccc1O	inactive
CC(=O)N1CN(C2CC(C)(C)NC(C)(C)C2)Cc2c1sc1c2CCCC1	inconclusive: 10 µM [inhibitor, partial curve]
Cc1cc(C(=O)NNCc2ccccc2)no1	inactive
CN1CCN(C(=O)c2cc3nc(-c4ccc(F)cc4)cc(C(F)(F)F)n3n2)CC1	inconclusive: 7.08 µM [inhibitor, full curve, poor fit]
COc1ccc(-c2cc(N)n(S(=O)(=O)c3c(F)c(F)c(F)c(F)c3F)n2)cc1OC	inconclusive: 31.6 µM [inhibitor, single point]
CC(=O)Nc1ccc(C(C#N)c2ccccc2)cc1 (stereo unspecified)	inactive
COc1ccc2oc(C(=O)OC(C)C(=O)NCc3ccccc3)c(C)c2c1 (stereo unspecified)	inconclusive: 11.2 µM [inhibitor, partial curve]
Cc1ccc(-c2cc3ccccc3nc2N)cc1	inconclusive: 31.6 µM [inhibitor, single point]
CCN(CC)S(=O)(=O)c1ccc(N2CCOCC2)c(NC(=O)c2ccc(N3CCCC3=O)cc2)c1	inconclusive: 3.98 µM [inhibitor, full curve]
COc1ccc(NS(=O)(=O)c2cc(C(=O)N3CCCCCC3)ccc2C)cc1	inconclusive: 0.891 µM [inhibitor, full curve, poor fit]
O=C(c1ccccc1)c1cc(Cl)ccc1N1C(=O)C=CC1=O	inactive
CCOc1ccc(NC(=S)N(CCCN2CCCC2)Cc2cccn2Cc2ccc(Cl)cc2)cc1	inconclusive: 22.4 µM [inhibitor, single point]
CC(=O)OCC1=C(C(=O)OC(C)(C)C)N2C(=O)[C@@H](NC(=O)Cc3ccccc3)[C@H]2SC1	inactive
Cc1c(N2CCCC2)cc2c(c1NC(=O)c1ccccc1Cl)C(C)(C)CC2(C)C	active: 25.1 µM
Cc1ccc(N2C(=O)NC(NC(=O)c3ccc(Cl)cc3)(C(F)(F)F)C2=O)cc1 (stereo unspecified)	inconclusive: 31.6 µM [inhibitor, single point]
CC(=O)N/N=C(\N)c1nonc1N	inactive
CCOC(=O)C[C@H]1c2cc(F)ccc2S(=O)(=O)N1C(C)(C)C	inconclusive: 1.58 µM [inhibitor, partial curve]
O=C(COc1cccc(Br)c1)NN=C1c2ccccc2-c2ccccc21	inconclusive: 0.501 µM [inhibitor, partial curve, poor fit]
O=[N+]([O-])c1ccc2c(c1)C(N1CCOCC1)/C(=C/COc1ccc(Cl)cc1Cl)O2 (stereo unspecified)	inconclusive: 5.62 µM [inhibitor, single point]
CC(C)c1ccc(C2=C(O)c3ccccc3C(=O)C2=O)cc1	inactive
CCOC(=O)N1CCC(N2Cc3cccc(C(=O)NCc4ccc5c(c4)OCO5)c3C2=O)CC1	inconclusive: 31.6 µM [inhibitor, single point]
CCC(CO)Oc1cc(NCc2ccc(C(C)(C)C)cc2)c2ncn(C(C)C)c2c1 (stereo unspecified)	active: 7.94 µM
Cc1ccc2cc(C#N)c(N3CCN(C)CC3)nc2c1	inconclusive: 25.1 µM [inhibitor, partial curve]

Compound	Potency
COc1ccc(N2CSC3=C(C#N)C(c4cc(OC)ccc4OC)CC(=O)N3C2)c(OC)c1 (stereo unspecified)	inconclusive: 22.4 µM [inhibitor, single point]
COc1ccccc1NC(=O)CCc1nnc2ccc(N3CCCCC3)nn12	inactive
CCOC(=O)c1ccc(NC(=O)CSc2nc3c(c(=O)n2C)SC(C)C3)cc1 (stereo unspecified)	inconclusive: 31.6 µM [inhibitor, single point]
CCOC(=O)c1c(C)oc2c1c1c(c3ccccc32)OCN(Cc2cccnc2)C1	active: 6.31 µM
COc1cc(/C=N/n2c(-c3ccc4c(c3)NC(=O)CO4)csc2=Nc2cccc(C)c2)ccc1O	active: 7.08 µM
CC(C)CCNC(=O)CCn1c(=S)oc2ccccc21	inactive
O=C(NN=Cc1c(O)ccc2ccccc12)C1CC1	inconclusive: 31.6 µM [inhibitor, single point]
CCCCOC(=O)c1ccc(NC(=O)C(=O)NCc2ccco2)cc1	inactive
COc1cccc(CN2CC(C(=O)NC3CCCCCC3)CCC2=O)c1 (stereo unspecified)	inactive
CCN(C(=O)CN1CCCc2ccccc21)c1c(N)n(Cc2ccccc2)c(=O)[nH]c1=O	inactive
CCNc1ccc(C(=O)OCC(=O)N(Cc2ccccc2)C(C)(C)C)cc1[N+](=O)[O-]	inconclusive: 31.6 µM [inhibitor, single point]
CC(C)Cn1c(N)c(C(=O)COC(=O)c2ccc(O)cc2)c(=O)n(C)c1=O	inconclusive: 15.8 µM [inhibitor, partial curve]
CCc1nc(N2CCN(C(=S)NCCCOC)CC2)c2c3c(sc2n1)CCCC3	inconclusive: 31.6 µM [inhibitor, single point]
COc1ccc(NC(=O)Cc2c(C)n(C(=O)c3ccc(Cl)cc3)c3ccc(OC)cc23)cc1	inactive
CN(C)CCCNc1oc(-c2cccc(Cl)c2)nc1C#N	inconclusive: 10 µM [inhibitor, partial curve, poor fit]
Cn1c(SCc2ccc(Br)cc2)nc2ccccc2c1=O	inconclusive: 22.4 µM [inhibitor, single point]
CN(CC(=O)Nc1ccc(Cl)cc1)C(=O)Cn1[nH]c(=O)c2ccccc2c1=O	inconclusive: 7.08 µM [inhibitor, partial curve]
COC(=O)c1[nH]c2cc(OC)ccc2c1NC(=O)CCN1CCN(Cc2ccc3c(c2)OCO3)CC1	inconclusive: 31.6 µM [inhibitor, single point] and inconclusive: 11.2 µM [inhibitor, single point]
COc1ccc(NC(=O)CSc2nnc(-c3ccccn3)n2-c2ccccc2)cc1OC	inconclusive: 15.8 µM [inhibitor, single point]
CN(Cc1ccccc1)C(=O)c1ccc2c(c1)OCO2	inactive
Cc1cc(C)n2cc(CSc3nnc(-c4ccccc4)c(-c4ccccc4)n3)nc2n1	inactive
c1csc(-c2nc(CN3CCSCC3)cs2)c1	inactive
O=C(CCc1nnc(C2(c3ccc(Cl)cc3)CCC2)o1)N1CCCC1	inactive
